Where “and” joins values, the source holds several entries; their conditions need not be identical. Equal entries are not always repeated. About 40 (0.2%) of roughly 16,000 compounds were called active. Another 1% or so got no clear call; they are omitted. Calls follow the shape of the dose curve; as a rule, active = well fitted activation curve with a large enough effect; inconclusive = small, poorly fitted or top-dose-only effect, or another doubt; inactive = no such curve, though single readings can be large or run the other way. Some of the results follow.
% is scaled to controls: 0 for no effect and ±100 for the full control effect.

Sequence of UniProt Q8WZA2 (Q8WZA2 whole entry, looked up): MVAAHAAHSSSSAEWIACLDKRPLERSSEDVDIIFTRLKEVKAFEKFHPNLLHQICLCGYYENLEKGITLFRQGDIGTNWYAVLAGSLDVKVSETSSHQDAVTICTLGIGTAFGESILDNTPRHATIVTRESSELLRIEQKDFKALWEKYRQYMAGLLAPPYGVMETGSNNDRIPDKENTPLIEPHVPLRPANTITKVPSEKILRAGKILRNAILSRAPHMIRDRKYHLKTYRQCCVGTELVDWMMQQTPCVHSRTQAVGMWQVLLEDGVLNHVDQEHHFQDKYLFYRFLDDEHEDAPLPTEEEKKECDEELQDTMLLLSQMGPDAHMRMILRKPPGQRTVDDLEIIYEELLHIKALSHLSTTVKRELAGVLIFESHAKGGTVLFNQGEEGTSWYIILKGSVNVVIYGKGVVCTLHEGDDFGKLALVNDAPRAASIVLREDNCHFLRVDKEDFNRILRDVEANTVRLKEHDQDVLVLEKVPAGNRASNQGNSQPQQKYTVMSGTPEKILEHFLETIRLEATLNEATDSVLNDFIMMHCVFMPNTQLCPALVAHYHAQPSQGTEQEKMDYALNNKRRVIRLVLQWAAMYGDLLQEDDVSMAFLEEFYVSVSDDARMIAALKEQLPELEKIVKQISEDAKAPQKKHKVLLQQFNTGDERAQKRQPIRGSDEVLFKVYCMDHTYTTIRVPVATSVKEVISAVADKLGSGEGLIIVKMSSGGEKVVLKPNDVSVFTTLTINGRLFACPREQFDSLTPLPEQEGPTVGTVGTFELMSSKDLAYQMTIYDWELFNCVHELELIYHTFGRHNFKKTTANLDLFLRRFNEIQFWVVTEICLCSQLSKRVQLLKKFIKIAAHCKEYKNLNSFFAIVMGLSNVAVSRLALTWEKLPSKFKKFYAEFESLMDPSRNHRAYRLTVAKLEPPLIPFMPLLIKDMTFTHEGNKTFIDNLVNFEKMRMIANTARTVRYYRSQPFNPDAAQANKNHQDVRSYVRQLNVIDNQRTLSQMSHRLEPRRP

This experiment addresses Rap guanine nucleotide exchange factor 4 (Homo sapiens) (UniProt Q8WZA2). Put plainly: Validation qHTS for agonist of cAMP-regulated guanine nucleotide exchange factor 4 (EPAC2).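 Also: exchange makes BODIPY-GDP fluorescence drop when released from Rap1B; series mostly up to about 150 µM.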 To be noted: EPAC2 Rap1B BODIPY-GDP exchange, fluorescence; activation: active compounds read high. In short, it runs like this:
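Signal normalized against 6.5 mM cAMP as agonist control. Mix of EPAC2 (100 nM), RAP1B-BODIPY-GDP (250 nM) and GDP (50 uM) was read kinetically at 480/540 nm, every 5 min over 30 min, after 5 min room-temperature incubation with compound.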
Consider `C=C1C(N)CC2CC1C2(C)C` (stereo not drawn), for which the activation was inactive: -6.88%.

As for `CCCCCCCC(=O)O[C@H](CC(=O)O)C[N+](C)(C)C`, the activation is inactive: -3.66%. The figure for `COc1cccc(CN2CCOc3ccc(C(O)c4cccnc4)cc3C2)c1` (stereo not drawn) is inactive: 3.28%; for `COCC(=O)N1CCC2(CCCN(Cc3ccccc3OC)C2)CC1` it is inactive: 3.47%. To `O=c1cc[nH]c(=O)[nH]1` belongs inactive: -8.19%. To `CCNc1ncc2nc(-c3cn(C)c4ccccc34)c(=O)n(C)c2n1` belongs inactive: -3.91%. As for `Cc1ccc2c(c1)CN(C(=O)CC(c1ccccc1)c1ccco1)CC(C)O2` (stereo not drawn), the activation was inactive: -18.6%. To `COc1ccc(CNc2nc(-c3c(C)noc3C)nc3ccccc23)c(OC)c1` belongs inactive: 19%; to `O=C(NCc1cccnc1)[C@@H]1CC=C[C@@H]2CCN(Cc3ccccc3)C(=O)[C@@H]21`, inactive: -18.6%. To `COc1ccc(-c2cc(=O)c3c(OC)c(OC)c(OC)c(OC)c3o2)cc1OC` belongs inactive: 0.846%; to `CC(=O)O[C@]1(C(C)=O)CC[C@H]2[C@@H]3CCC4=CC(=O)CC[C@]4(C)[C@@]3(F)[C@@H](O)C[C@@]21C`, inactive: -22.4%. With `CN(CCO)C(=O)c1cn(C2CCCN(Cc3cc4ccccc4s3)C2)nn1` (stereo not drawn), the activation is inactive: -6.63%.

Turning to `Cc1cccc(CNc2cc(-c3ccccc3C)ncn2)c1`, the activation is inactive: -23.7%.

On to `CC1(C)O[C@@H]2C[C@@H]3[C@H]4C[C@@H](F)C5=CC(=O)C=C[C@]5(C)[C@@]4(F)[C@@H](O)C[C@]3(C)[C@]2(C(=O)CO)O1`, for which the activation is inactive: -12.6%. Take `O=C(c1csnn1)N1CCC2(CC1)CCN(c1ncccn1)CC2`: the activation is inactive: -6.28%. As to `Cc1nc2cnc(OCc3ccccc3)nc2n(CCC#N)c1=O`, the activation is inactive: -17.2%.

As for `CC(N)=NCc1cccc(CN)c1`, the activation was inactive: -5.15% and inactive: -3.61%. To `Cc1noc(C)c1C(=O)N1CCC[C@@]2(CCN(C(=O)Nc3ccccc3)C2)C1` belongs inactive: 7.02%; to `Cc1cc(CC(=O)O)c(C)n1-c1ccc(Cl)cc1`, inactive: -0.347%; to `O=C(c1cc(C(F)(F)F)cc(C(F)(F)F)c1)N1CCC2(CC1)CCN(c1ncccn1)CC2`, inactive: -10.1%. As to `CCn1nc(C)cc1C(=O)NCC1CCC2(CCN(Cc3ccccc3F)CC2)O1` (stereo not drawn), the activation is inactive: -14.5%.

For `CC(=O)/C=C\C1[C@]2(C)CCCC(C)(C)C2CC[C@@]1(C)O` (stereo partly drawn), the activation is inactive: 1.26%. To `CC(CN1CCc2nnc(CNC(=O)c3cccc(F)c3)n2CC1)c1ccccc1` (stereo not drawn) belongs inactive: -11.2%.

Regarding `COc1ncc2nc(CCc3ccccc3)c(=O)n(Cc3cccs3)c2n1`, the activation was inactive: 8.82%. To `CCOC(CN1CCN(CC(C)C(=O)c2ccccc2)CC1)c1ccccc1` (stereo not drawn) belongs inactive: 3.96%. Consider `OCC(CO)N[C@H]1C[C@](O)(CO)[C@@H](O)[C@H](O)[C@H]1O`, for which the activation is inactive: 1.34%.

`C=CCNc1ncnc2ccc(Br)cc12`: the activation was inactive: -25.8%.

For the molecule `COc1ncc2nc(-c3cccs3)c(=O)n(CCC#N)c2n1`, the activation is inactive: 3.34%.

`CC(=O)Oc1ccc(C2(c3ccc(OC(C)=O)cc3)Oc3ccccc3NC2=O)cc1`: the activation was inactive: -4.9%. The figure for `COc1ccc(CNc2ncncc2-c2ccccc2C)c(OC)c1` is inactive: -18.7%; for `COc1cccc(-c2ccc(O)c(CNCc3cccc4ccccc34)c2)n1` it is inactive: -5.14%. The figure for `COc1cccc(C2(CC(=O)N3CCC(c4nc5ccc(F)cc5[nH]4)CC3)CC(=O)N(C)C2=O)c1` (stereo not drawn) is inactive: -0.914%; for `COc1ccc(C[C@@H](C)NC[C@H](O)c2ccc(O)c(NC=O)c2)cc1` it is inactive: 2.52%. To `O=C(CCCN1CCC(n2c(=S)[nH]c3ccccc32)CC1)c1ccc(F)cc1` belongs inactive: -4.17%; to `C#CC1(O)CC[C@H]2[C@@H]3CCC4=CCCC[C@@H]4[C@H]3CC[C@@]21C` (stereo partly drawn), inactive: 7.28%; to `COC(=O)[C@@H]1CCCN1Cc1ccc2c(c1)CN(Cc1ccc3c(c1)CCO3)CCO2`, inactive: 4.1%. Turning to `CCCCN1CCC[C@@H]1CNC(=O)c1cc(C#N)c2ccccc2c1OC`, the activation was inactive: -2.39%. Take `CC[C@H]1c2[nH]c3ccc(C(C)C)cc3c2[C@@H]2CCN3C(=O)CCC[C@H]1[C@H]23`: the activation was inactive: -30.3%. To `COCc1c(C(=O)NC2CCCC2)cnn1-c1nccc(-c2cccs2)n1` belongs inactive: -13%; to `CC(C)NC(=O)N1CCC2(CC1)CCN(C(=O)c1csnn1)CC2`, inactive: -8.1%. The figure for `COc1ccc(-c2nc3cnc(Oc4cccc(Cl)c4)nc3n(C3CC3)c2=O)cc1` is inactive: -12.2%; for `O=S(=O)(NCc1nc(N2CCCC2)c2cc(Cl)ccc2n1)c1ccccc1OC(F)(F)F` it is inactive: -6.22%; for `Cc1cc(N(C)C)cc(C)c1C=O` it is inactive: -20.6%. For the molecule `O=C1C[C@H]2C=CCc3cccc(c32)CN1Cc1ccc(Br)cc1`, the activation is inactive: -4.69%. Regarding `OCCCNCc1cc2ccc(F)cc2nc1N1CCN(c2cccc(Cl)c2)CC1`, the activation was inactive: 7.21%. To `CCN(CC)CCNC(=O)c1cc(Br)c(N)cc1OC` belongs inactive: 15.2%; to `Cc1ccc(Nc2nccc(N(C)c3ccc4c(C)n(C)nc4c3)n2)cc1S(N)(=O)=O`, inactive: 0.615%; to `O=C1CCN(CCc2ccccc2)CCN1[C@H](CSc1ccccc1)c1ccccc1`, inactive: -31.2%.

As for `Cc1noc(C)c1C(=O)N1CCC2(CC1)CN(c1ncccn1)C2`, the activation was inactive: -11.9%. To `COc1ccccc1CNc1ncnc2ccc(-c3ccc(N(C)C)cc3)cc12` belongs inactive: -0.179%; to `CCc1ccc(/C=C2/SC(=S)NC2=O)cc1`, inactive: -46.9%; to `CN=C1C=CC(=C(c2ccc(N(C)C)cc2)c2ccc(N(C)C)cc2)C=C1`, inactive: -16.2%. With `O=C(NCC1Cc2cccc(-c3cccnc3)c2O1)c1cc(-c2ccccc2)n[nH]1` (stereo not drawn), the activation is inactive: 3.84%.

Consider `OC(CCN1CCCCC1)(c1ccccc1)c1ccccc1`, for which the activation was inactive: 8.79% and inactive: -3.29%.

Consider `CC(=O)[C@H]1[C@H](C#N)C[C@H]2[C@@H]3CC=C4C[C@@H](O)CC[C@]4(C)[C@H]3CC[C@@]21C`, for which the activation was inactive: 0.549%.

Consider `CC(C)[C@H]1COCCS(=O)(=O)N1Cc1ccc(Cl)cc1`, for which the activation is inactive: -35.8%. To `CCNc1ncc2nc(-c3cccs3)c(=O)n(Cc3cccs3)c2n1` belongs inactive: 3.08%. Consider `COc1cccc2c1CCC1CC(=O)CC[C@@]21C` (stereo partly drawn), for which the activation is inactive: -17.4%. To `O=c1[nH]cnc2[nH]cc(CN3CCCCC3)c12` belongs inactive: -5.61%; to `Cn1ccc(C(=O)NCC2CCC3(CCN(Cc4ccc(F)cc4F)CC3)O2)n1` (stereo not drawn), inactive: -1.38%; to `CC(C)(Cc1c[nH]c2ccccc12)NCC(O)COc1ccccc1C#N` (stereo not drawn), inactive: -4.99%. As for `CCn1c(-c2cccnc2)nc2cc(NC(=O)COC)cc(C(=O)N3CCc4ccccc4C3)c21`, the activation was inactive: -4.51%. To `O=C1c2cccc(O)c2C(=O)c2c(O)cccc21` belongs inactive: -4.41% and inactive: -6.74%. The figure for `COCCn1c(=O)c(-c2ccc(OC)cc2)nc2cnc(OCc3ccccc3)nc21` is inactive: -3.47%; for `Cc1ncc2c(c1CNC(=O)c1cncs1)CCN(C(=O)c1csc(-c3cccs3)n1)C2` it is inactive: -2.6%.

`O=C(c1ccncc1)N1CCC2(CC1)CN(c1ccccn1)C2`: the activation is inactive: -28.7%. To `CO[C@@]1(NC(=O)CSCC#N)C(=O)N2C(C(=O)O)=C(CSc3nnnn3C)CSC21` (stereo partly drawn) belongs inactive: 7.69%; to `COc1ccc(CN2CCCC(c3nc(C)ncc3-c3ccc(F)cc3)C2)c(OC)c1OC` (stereo not drawn), inactive: 6.72%.

With `O=C(O)C1CN(CCCP(=O)(O)O)CCN1` (stereo not drawn), the activation is inactive: -7.12%. To `Cc1noc(C)c1C(=O)N1CCC2(CCCN(c3ccncc3)C2)CC1` belongs inactive: -1.09%; to `CCOC(N)=O`, inactive: -12.2%; to `Oc1cccc2c(CC(O)c3c[nH]c4ccccc34)ccnc12` (stereo not drawn), inactive: -10.7%. To `CC(CCC(=O)O)C1CCC2C3CC[C@H]4CC(O)CC[C@@]4(C)C3CC[C@@]12C` (stereo partly drawn) belongs inactive: -3.73%; to `COc1ccccc1-c1cc(NCc2cccs2)ncn1`, inactive: 7.98%; to `Cc1ccccc1-c1ccc2ncnc(N3CCNCC3)c2c1`, inactive: 2.81%. Turning to `O=C(NCCNC[C@@H](O)COc1ccc(O)cc1)N1CCOCC1`, the activation is inactive: -14.2%. The figure for `O=c1cc(-c2ccc(O)c(O)c2)oc2cccc(O)c12` is inactive: -4.89%; for `O=C1c2ccccc2C(=O)c2cc(Cn3cc(-c4cccc(C(F)(F)F)c4)nn3)ccc21` it is inactive: -18.6%.

For the molecule `CC(=O)O[C@@H]1CC2C(C)(C)C(=O)C=C[C@]2(C)C2CC[C@]3(C)C(=CC[C@H]3C3CO[C@@H](C(C)(C)O)[C@H](O)C3)[C@@]21C` (stereo partly drawn), the activation is inactive: -20.7%. The figure for `C[C@H](NCCc1ccc(O)cc1)[C@H](O)c1ccc(O)cc1` is inactive: 6.1%; for `N[C@H](C(=O)O)c1ccc(C(=O)O)c(O)c1` it is inactive: -7.35% and inactive: -1.36%; for `COCC(=O)Nc1cc(C(=O)N2CCc3ccccc3C2)c2c(c1)nc(-c1ccncc1)n2C` it is inactive: -0.31%. To `COc1ccccc1CNC(=O)c1cnn(-c2nccc(-c3cccs3)n2)c1C` belongs inactive: 0.165%; to `COc1cccc(Nc2ncc3ncc(=O)n(Cc4cccs4)c3n2)c1`, inactive: 24.4%.

As to `O=c1c(-c2ccccc2)nc2cnc(Oc3cccc(Cl)c3)nc2n1C[C@H]1CCCO1`, the activation is inactive: -13%. The figure for `O=C(C1CCCCC1)N1CCOc2ccc(CN3CCN(Cc4ccccn4)CC3)cc2C1` is inactive: -0.718%; for `CC(C)NNC(=O)c1ccncc1` it is inactive: -10.8% and inactive: 1.97%; for `Cc1[nH]c2c(C(=O)NCC3Cc4cccc(-c5cccnc5)c4O3)cccc2c1C` (stereo not drawn) it is inactive: 5.59%.

These data come from PubChem BioAssay AID1645887 (National Center for Advancing Translational Sciences (NCATS), 2021).
